Measurements: the supplement of paper PMC11417369
± gives the standard deviation of the averaged measurements. Some of the results follow.

Test system: PfAP2-EXP AP2 domain (GST-tagged)
Assay: gcPBM binding intensity (ln(normalized median fluorescence intensity)); higher = stronger DNA binding
Summary of the method: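 An Agilent 4 × 180k array of primer-extended double-stranded 36-bp intergenic genomic probes, with negative controls, was incubated for 1 h with GST-tagged P. falciparum DNA-binding domains expressed in E. coli. Alexa488 anti-GST antibody detected bound protein, scanned at 488 nm. Binding intensity is the highest Masliner-normalised natural-log median intensity across replicate spots of either probe orientation.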

Row | Sequence | gcPBM binding intensity (ln)
1 | AAAATATCTTATATATGTACATATTTATATTTATAT [XGTACX_site6027] | 8.46 ± 0.35
2 | TTGTTTTTTTTTGGCTGTACGTTCATAAATTTTTTT [XGTACX_site4165] | 8.79 ± 0.52
3 | TAATTACACTTTAAAAGTACATATATAATAACATTA [XGTACX_site379] | 8.38 ± 0.26
4 | AAAATAAGCCATATACGTACATACATATATAAATAT [XGTACX_site4197] | 8.57 ± 0.33
5 | CAAACAATTAAACAAACACACATATACATGTATATA [CACACA_site2060] | 8.4 ± 0.66
6 | TTCATATTTCATATATGTACTTATGTTCAATATAGT [XGTACX_site3811] | 8.31 ± 0.3
7 | TTTTTTATGTTCAATTGTACATATACATATATATAT [XGTACX_site6013] | 9.36 ± 0.11
8 | GATTTAATAGATACGAGTACAGAAATTGTATACATA [XGTACX_site7563] | 8.7 ± 0.39
9 | TACATATTTTTCTTTTCACACATGGAAAAAAAAGGT [CACACA_site5146] | 8.71 ± 0.23
10 | AATATATTTATTATAACACACACATATATATATTAT [CACACA_site8264] | 8.54 ± 0.39
11 | CCCTTAATTTAAAACACACAAACAAATAAGTTAGTT [CACACA_site3793] | 8.69 ± 0.5
12 | TATTTTTTTTTTCACTGTACATACAACAACAAATAT [XGTACX_site8835] | 8.75 ± 0.55
13 | TATTAATTCATTTTTTTTTTTTTTTTTTTTTTTTTT [CACACA_negctrl_site1215] | 8.84 ± 0.16
14 | ATATATATATATATATATATATATATATATAAGTGG [XGTACX_negctrl_site90] | 9.94 ± 0.35
15 | TTATATGTTTTGTGTACACAATTTATTAAATTAATA [CACACA_site5645] | 8.96 ± 0.38
16 | ATAGGAAAAAGTATTGGTACACATACATATACGTTA [XGTACX_site5819] | 8.77 ± 0.21
17 | ACACAAAAAATTAAGTGTACTCATCAAGAAAAAAAA [XGTACX_site3456] | 8.31 ± 0.55
18 | TATATATTTTTTTCATGTACATATAAATTAATTAAA [XGTACX_site8680] | 8.72 ± 0.36
19 | ATAAAATACCCTGATCTATTACATATTATATTCTGC [GTGCAC_negctrl_site311] | 8.28 ± 0.49
20 | GATTCCTTTAACCCTGCACACATACATACATTTATA [CACACA_site9308] | 9.3 ± 0.4
21 | TAATAATATAATAATACACACTCATTATATATATAA [CACACA_site6045] | 8.18 ± 0.43
22 | TATATTTCTTATTACATACACACATATACATATATG [CACACA_site3202] | 8.71 ± 0.58

Row | Sequence | gcPBM binding intensity (ln)
23 | ATAGATGCATATTATACACACATATGTAAATACATT [CACACA_site4691] | 8.54 ± 0.3
24 | CCACTATATAAAATCACACATTTATATTATACATAT [CACACA_site4570] | 8.43 ± 0.4
25 | AAAAAAAGAAATTAGGTGCATAGCATTAACCGATAA [GTGCAC_site9582] | 8.88 ± 0.13
26 | TTGAAGTTAATAAAAACTTTATACATGAAATTATTT [CACACA_negctrl_site684] | 8.08 ± 0.42
27 | ATAATAGTTAAATGTACACACTAACTACATGGAATA [CACACA_site5753] | 8.6 ± 0.33
28 | TATTGGTAATGTAAATGTACATATAGATATTTACAT [XGTACX_site1922] | 8.36 ± 0.46
29 | TTTATTTTAATTTATTGTACATTGTTATCAAGTGCA [XGTACX_site1110] | 8.68 ± 0.64
30 | ACAAAATATTTTTCTTCACACATCCATTCAACATTT [CACACA_site5886] | 8.96 ± 0.33
31 | ACAAAAAAAAAAAAAATACACACACATAAAAAAAAA [TGCATGCA_negctrl_site333] | 8.4 ± 0.54
32 | AATCAAAACATTAAAAAGAAAAAATATATATATATA [CACACA_negctrl_site366] | 10.2 ± 0.26
33 | TATATATATATATATATTAATAATTAATATAAAAGA [XGTACX_negctrl_site32] | 9.23 ± 1.2
34 | TATAAATGATTAATTTGTACATATTTTACTTAATTG [XGTACX_site5271] | 8.18 ± 0.37
35 | CCATTCAAATTTCGCACACACATACAAAAAAAAAAA [CACACA_site3093] | 8.59 ± 0.42
36 | TTGATGATATCATTTTGTACTTATACGTATTTAAAA [XGTACX_site148] | 8.73 ± 0.5
37 | TAAATAAATAAATATATATATATATATATATATATA [XGTACX_negctrl_site70] | 10.2 ± 0.41
38 | CTTTAAATGATGTAAACACACACATATACATTATTA [CACACA_site9035] | 8.35 ± 0.28
39 | CACATAAAAAAATAAACACACATATGTATATAAATA [CACACA_site7483] | 8.68 ± 0.45
40 | AATGGAAAAATAGGCACACACACATAAATACAGATA [CACACA_site4844] | 9.03 ± 0.64
41 | TAAAAAAAAATAAAAAGTACATATATATATATATAT [XGTACX_site1155] | 10.3 ± 0.46
42 | AGTGCTACTCATGATTGAATAGAGGAAAAGGCGGTG [GTGCAC_negctrl_site49] | 8.49 ± 0.19
43 | AATATGAAACAAGACGCACACATAAATAAATAAATA [CACACA_site326] | 8.84 ± 0.49
44 | CTAAAAAAATAATAAAGTACACAAACGAATATATAA [XGTACX_site668] | 8.99 ± 0.38

Row | Sequence | gcPBM binding intensity (ln)
45 | ACATATGGCACATATGTACACACGTATAGATAATAT [CACACA_site2024] | 8.95 ± 0.23
46 | TTGAAAAATCAGCACACACACAAATACATACATATT [CACACA_site7505] | 8.59 ± 0.54
47 | CTTTTTTGGTACATCACACATTTTTACATTCCCTTT [CACACA_site4957] | 9 ± 0.28
48 | TTTTTTTTTTTTTTTGCACACTATATTTAATATAAG [CACACA_site2444] | 8.4 ± 0.33
49 | TTAATAGTGGAAATATGTACATAATTTTGGTCTTTT [XGTACX_site1664] | 8.78 ± 0.3
50 | CTGTTCAAAATATGAACACACACATATATATATATA [CACACA_site8638] | 10.1 ± 0.46
51 | CCATATTTAATAAAATGTACTCATTCTTTTATTTTA [XGTACX_site7802] | 8.48 ± 0.34
52 | TATTGGATCACACAAAAATGTATAAATAAATAGAAA [TGCATGCA_negctrl_site490] | 8.61 ± 0.28
53 | ATTCAATAAACGTATTGTACAAAAGAACGATATATT [XGTACX_site2533] | 8.87 ± 0.53
54 | TGAGAATAAAAAAAAGGGATTATTAGATTTCTCCTT [TGCATGCA_negctrl_site326] | 7.99 ± 0.39
55 | ATCATAACTTGATACGCACACGTTATATAAATAAAA [CACACA_site4955] | 8.52 ± 0.47
56 | TTATGTTGCGAGTTCTTAAGATATAAAAAATTCTTC [GTGCAC_negctrl_site45] | 8.39 ± 0.46
57 | AAAAAAATAAGGTGCACACAAAAAAAAAAAAAAAAA [CACACA_site812] | 8.64 ± 0.92
58 | AAGACAAATTGTGACACACACAAAAAAAAAAAAAAA [CACACA_site3727] | 8.28 ± 0.54
59 | GATTCATTTCGTAATACACACAACAAATATTTCAAA [CACACA_site1772] | 8.59 ± 0.41
60 | AATGTAAATAAGTGTACACATATATAATACATACAT [CACACA_site4938] | 8.82 ± 0.33
61 | TACCTTATATTATATACACACATATAATATAATATA [CACACA_site1328] | 8.36 ± 0.25
62 | GTCTCCTTTATTTTTGGTACAGATAAGATAAAAGGA [XGTACX_site1591] | 8.5 ± 0.34
63 | TATAACATTATTTTGTGTACACATTCGGTTATATTA [XGTACX_site6310] | 8.96 ± 0.3
64 | AATCAAAATATATCTACACACATTTAAGTAACCCAT [CACACA_site5846] | 8.57 ± 0.62
65 | ATTATCAAAAAAAAAAAAAAAAAAAAAAAAAAAAAA [CACACA_negctrl_site1118] | 7.93 ± 0.4
66 | GTGTTCATATATAGCCGTACATATGTCTTATGAACG [XGTACX_site5647] | 8.77 ± 0.34

Row | Sequence | gcPBM binding intensity (ln)
67 | ATATAGATCTATAATACACACTTATGAAATGTCTAA [CACACA_site6946] | 8.52 ± 0.49
68 | TTGTTTCCGATGAAAGAAAGGAAATTATAATATATC [GTGCAC_negctrl_site516] | 8.57 ± 0.47
69 | TAAAATAATATTTATGTGCACATATAATTATTAATT | 8.58 ± 0.028
70 | AGAAAAAACAAAAGAGAAATGAAAAAAAAAAAAAAA [XGTACX_negctrl_site482] | 8.29 ± 0.47
71 | ATATATATTTTTATAACACACAATGATGTACATTAC [CACACA_site1076] | 8.52 ± 0.26
72 | TTTGTGCTTATCCTAACACACACAACATATAAGAAA [CACACA_site9091] | 8.61 ± 0.42
73 | TTATATATACCATAATGTACTCTATTATATAAAAAA [XGTACX_site7464] | 8.57 ± 0.29
74 | TGTGTAGCTAGGGGGTTGCTAATTTTTGTTTTGACC [CACACA_negctrl_site634] | 9.3 ± 0.24
75 | AATATTTCTTTAATTTGTACATATAAGGGAAAATAA [XGTACX_site6221] | 8.56 ± 0.45
76 | CGGAAAAATTAAAGCACACAAAAAAAAATAAAAAAA [CACACA_site1133] | 8.65 ± 0.4
77 | TTTTATTAATATTGCATGCACACTATATAATAATTG [CACACA_site1049] | 10.02 ± 0.064
78 | TTTTTATTATTTTAAAGTACTCTTTAGTAATTCCCT [XGTACX_site5863] | 8.46 ± 0.42
79 | CACAGATAAATTAACACACACACACCGATATATATA [CACACA_site6049] | 8.83 ± 0.37
80 | AAAAAACATACATACACACACATAAATATTTATATT [CACACA_site7300] | 8.7 ± 0.4
81 | GGTGGTGGTGGGTGGGTGCTTCTATTATTATATTAT [GTGCAC_site9391] | 9.855 ± 0.078
82 | GATGTTTCTATTTTAGTGCATTTTAAATAAATAAAT | 8.72 ± 0.17
83 | TATATATATTATTATGCATGTAATAAAACAAATAAT [TGCATGCA_site625] | 8.98 ± 0.38
84 | ACGTTACATACATATACACACACATATATATATATA [CACACA_site8203] | 10.1 ± 0.35
85 | TCATTCTAAATATAAACACACATAAATAAATACATT [CACACA_site5788] | 8.79 ± 0.27
86 | CTTAGGTGTTCATAGAGTACAAATAAAAAAATAAGA [XGTACX_site2294] | 8.76 ± 0.49
87 | ATATATATTTTAATAACACACATATATTATATTATA [CACACA_site4387] | 8.38 ± 0.31
88 | ATTTCTTCTTTTTTTGTGAAACTGGAATATATATAT [XGTACX_negctrl_site527] | 9.17 ± 0.057
